# Experimental data published in PubChem BioAssay (NCI).
#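 Tested at 5 concentrations; 48 h exposure; 96-well plates; endpoints linearly interpolated, else capped at highest concentration. At the GI50, growth is halved. TGI is the concentration that stops growth completely.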 Square brackets hold non-standard residues; d marks the D form. Peptide text beside a SMILES is read from it. * marks the point of attachment. ξ: configuration not given here. ξNMeF = CNC(Cc1ccccc1)C(=O)O; NMeV = CN[C@H](C(=O)O)C(C)C; ΔPro = O=C(O)[CH]1C=CCN1; Boc = CC(C)(C)OC(=O)*; OBn = c1ccc(CO*)cc1
# System: NCI-H322M lung
# Test: inhibition of tumour cell growth, NCI panel, 48 h
Compound,TGI,GI50
c1ccc2sc(SSSc3nc4ccccc4s3)nc2c1,> 100 µM,
C=C(COCO)C(C)=O,98.7 µM,
CSc1c(C#N)c(=O)n(N)c2c1c(C)nn2-c1ccccc1,85.1 µM,
Cc1ccc(Sc2ccccc2C23OC(C)(C4C(=O)N(c5ccccc5)C(=O)C42)N(C)C3=O)cc1 (configuration not stated),> 100 µM,
CC(C)(C)OC(=O)N(O)[C@@H]1CC[C@H](n2cnc3c(N)ncnc32)C1,> 100 µM,
CC12OC(CC(O)C1O)n1c3ccccc3c3c4c(c5c6ccccc6n2c5c31)C(=O)N(CCN1CCOCC1)C4=O (configuration not stated),9.15 µM,1.76 µM
C=CCn1c2ccccc2c2c3c(c4c5ccccc5n(CC=C)c4c21)C(=O)N(O)C3=O,> 100 µM,5.5 µM
Cc1ccccc1NC(=O)Cc1nc2ccccc2s1,37.5 µM,
Cc1ccc(C[As+](c2ccccc2)(c2ccccc2)c2ccccc2)cc1,> 76.1 µM,3.56 µM
Cc1cc(C)c(NS(=O)c2cccc(C(F)(F)F)c2)c(C)c1 (configuration not stated),> 100 µM,
O=C(Sc1c(-c2ccccc2)c(=O)n(-c2ccccc2)c(=S)n1-c1ccccc1)c1ccccc1,> 100 µM,
C=C1c2nc3ccccc3n2C=C(c2cccc(Cl)c2)N1Cc1ccc(OC)cc1,> 100 µM,6.58 µM
CCOC(=O)[C@@H]1[C@@H](c2ccccc2)N(C)O[C@@]1(c1ccccc1)C(F)(F)F,> 100 µM,
COCn1cc(C2=C(C)C(=O)C(C)=C(C)C2=O)cn1,> 100 µM,
[N-]=[N+]=NC1C(O)C(CO)OC1n1ccc(N)nc1=O (configuration not stated),> 539 µM,
N#C/C(=C\c1cc(O)c(O)c(O)c1)C(N)=O,> 100 µM,
O=C(Nc1ccncc1)C(=O)c1cn(S(=O)(=O)c2cccc(Cl)c2)c2ccccc12,> 100 µM,> 100 µM
O=C(/C=C/c1ccccc1)c1cccc2ccccc12,6.14 µM,2.32 µM
O=C1/C(=C\c2ccc(F)cc2)CN(C(=O)c2ccccc2F)C/C1=C\c1ccc(F)cc1,15.8 µM,3.91 µM
CN(C)c1ccc(C=Nc2ccc(-c3nc4ccccc4s3)cc2)cc1,> 100 µM,
CCOC(=O)CN1C(=O)NC(C)(c2ccccc2)C1=O (configuration not stated),> 100 µM,
CCn1cc(CNc2ccc(C(=O)Nc3cc4cc(OC)c(OC)cc4c(C)n3)cc2)c(C)n1,> 100 µM,> 100 µM
COc1cc(S(=O)(=O)Nc2ccc(-c3csc(N4C(=O)C(C)SC4c4cccs4)n3)cc2)ccc1Cl (configuration not stated),> 100 µM,
CCCCCCCCOC(=O)C12Oc3ccc(-c4ccc5c(c4O)C(O)=C4C(=O)CC(C)C(O)C4(C(=O)OCCCCCCCC)O5)c(O)c3C(O)=C1C(=O)CC(C)C2O (configuration not stated),> 100 µM,
CC[C@@H](C)/C=C(C)/C=C/C(=O)c1c(O)c(-c2ccc(OC(=O)[C@@]34CC[C@@](C)(C(=O)O3)C4(C)C)cc2)cn(O)c1=O,15.3 µM,1.19 µM

Compound,TGI,GI50
CC(=O)[O-].CC(=O)[O-].O=C(N/N=C/c1cc(Cl)cc(Cl)c1[OH2+])c1ccncc1.[Mn+2],20.9 µM,
CC(=O)OCC1(C)C(O)CCC2(C)C1CCC1CC3CC12CCC3(O)CO (configuration not stated),> 100 µM,
C[C@@H](Nc1cc(F)cc(F)c1)c1cc(C(=O)N(C)C)cc2c(=O)cc(N3CCOCC3)oc12,> 69 µM,3.5 µM
CC(=O)OCC1OC(n2cccnc2=O)C(OC(C)=O)C1OC(C)=O (configuration not stated),> 100 µM,
O=C(O)CCC(c1ccccc1)(c1ccccc1)c1ccccc1,> 100 µM,
O=c1[nH]c(=O)c2c([nH]1)[nH]c1ccc(Br)cc12,> 100 µM,
O=C(/C=C/c1ccc(Cl)c(Cl)c1)c1ccccc1Cl,36 µM,
COC(=O)[C@H](Cc1cn(C)cn1)NC(=O)[C@H](CC(=O)OCc1ccccc1)NC(=O)Nc1cc(C(F)(F)F)cc(C(F)(F)F)c1,29.8 µM,15.4 µM
Cc1[nH]c(C)c(CN(C)C)c1CN(C)C,> 100 µM,
COC(=O)[C@@H]1C[C@@H](O)CN1C(=O)c1ccc([N+](=O)[O-])cc1[N+](=O)[O-],> 100 µM,
CC(Br)CN1CCOCC1 (configuration not stated),> 100 µM,
Cn1[nH]cc2ccc3nc4ccccc4c(=O)c3c21,> 100 µM,
Cc1ccc(S(=O)(=O)OCOS(=O)(=O)c2ccc(C)cc2)cc1,> 100 µM,
O=C1CSC(c2ccccc2O)N1c1ccc2c(c1)Oc1c(Cl)c3c(c(Cl)c1=N2)Oc1cc(N2C(=O)CSC2c2ccccc2O)ccc1N=3 (configuration not stated),> 100 µM,
COC(=O)C1(C(=O)OC)N=C(C)OC1c1ccccc1O (configuration not stated),> 100 µM,
N#C/C(=C\c1c(O)cc(O)cc1O)C(N)=O,> 100 µM,
NS(=O)(=O)c1ccc(N=Nc2ccc[nH]c2=O)cc1,> 100 µM,
COc1cc2c(cc1OC)C(C(CCCCCC(CCC(C)C)C1NCCc3cc(OC)c(OC)cc31)CCC(C)C)NCC2 (configuration not stated),3.26 µM,1.67 µM
COc1ccccc1-n1nnc2c(N)nc(N)nc21,> 100 µM,
COc1cccc2c1C(=O)c1c(O)c3c(c(O)c1C2=O)C[C@@](O)(C(=O)CO)CC3OC1CC(N)C(OC2CCCCO2)C(C)O1 (some centres not stated),16.9 µM,
CC(=Nc1ccc(N(C)C)cc1)c1ccccc1,> 100 µM,
CC(C)[C@@H](C(=O)N(C)[C@H](C(=O)N1CCC[C@H]1C(=O)OCc1ccccc1)C(C)C)N(C)C(=O)C(Cc1ccccc1)N(C)C(=O)[C@H](NC(=O)OC(C)(C)C)C(C)C (some centres not stated) (Boc-[dV][ξNMeF][NMeV][NMeV]P-OBn),> 31.6 µM,
O=S1(=O)c2ccccc2N(c2ccccc2)c2nnnn21,> 100 µM,
CC1(c2ccccc2)O[C@@H]2C[C@H]3[C@@H]4CCC5=CC(=O)C=C[C@]5(C)[C@@]4(F)[C@@H](O)C[C@]3(C)[C@]2(C(=O)CO)O1 (some centres not stated),37.8 µM,
CCc1nc(C)cn1C(=O)OCc1nc2nc(Cl)nc(N3CCOCC3)c2[nH]1,3.43 µM,1.65 µM

Compound,TGI,GI50
Cc1cc(N2CCOCC2)nc2ccc(Cc3ccc4nc(N5CCOCC5)cc(C)c4c3)cc12,> 100 µM,
O=c1[nH]c2c(c(=O)[nH]1)SC(c1ccccc1)C2 (configuration not stated),> 100 µM,
CC[C@H](C)[C@@H]([C@@H](CC(=O)N1CCC[C@H]1[C@H](OC)[C@@H](C)C(=O)NCCc1ccccc1)OC)N(C)C(=O)C(NC(=O)[C@H](C(C)C)N(C)C)C(C)C (some centres not stated),2.92 µM,0.000225 µM
C/C(O)=C(\C=N\C(=S)N=Nc1c(O)[nH]c2ccccc12)C(=O)Nc1ccccc1C,> 100 µM,
CCc1n[nH]c(=O)n1CC,> 100 µM,
NS(=O)(=O)c1nnc(NS(=O)(=O)c2ccccc2[N+](=O)[O-])s1,> 100 µM,
c1ccc(C2=NOC3C4CCC(C4)C23)cc1 (configuration not stated),> 100 µM,
Clc1sc(Cl)c2c1[C@H](Cl)C[C@@H]2Cl,> 100 µM,
CCN(CC)C1Oc2cc3c(cc2C(c2cc(OC)c(O)c(OC)c2)C1C)OCO3 (configuration not stated),98.7 µM,
Brc1ccccc2cc(-c3ccccc3)nc1-2,53.3 µM,
C=C1c2nc3ccccc3n2C=C(c2ccccc2)N1c1ccc(Cl)cc1,> 100 µM,
CC(=O)OC1CCC2OOC1O2 (configuration not stated),> 100 µM,
Cn1ncc(C#N)c1-c1ccc2c(c1)CN([C@H](CN)Cc1cccc(F)c1)C2=O,> 100 µM,16.2 µM
COc1ccc2c(c1)CCc1c-2[nH]c2cc3c(cc2c1=O)OCO3,> 100 µM,
O=Cc1ccc2ccocc1-2,> 100 µM,
CC1=CC(=O)N(c2cccc3c(N4C(=O)C=C(C)C4=O)cccc23)C1=O,> 100 µM,> 61.2 µM
CCOC(=O)c1ncn(CCc2ccc(Cl)cc2)c1C,> 100 µM,
O=C(O)C1C=CCN1C(=O)C1C=CCN1C(=O)C1C=CCN1 (configuration not stated) (H-[ΔPro]-[ΔPro]-[ΔPro]-OH; configuration not given here),> 100 µM,
Nc1cccc2c1-c1c(cccc1[N+](=O)[O-])C2=O,> 100 µM,
O=C1c2ccccc2C(=O)N1CCCOCc1c[nH]c(=O)[nH]c1=O,> 100 µM,
CN(C)NC1=C([N+](=O)[O-])C=NN(c2ccccc2)C1,13.2 µM,
CCN1CCN(c2nc(C)cc(NCc3cc(Nc4ccnc5cc(Cl)ccc45)ccc3F)n2)CC1,6.81 µM,1.7 µM
CC1(C)Cc2c(sc3[nH]c(=S)[nH]c(=S)c23)CS1,> 100 µM,
COC(=O)C1=CC2C(=O)OC1C1C(=O)NC(=O)C21 (configuration not stated),> 100 µM,
C=C1CC[C@@H]2C13[C@@H]1[C@H](CC(=O)[C@@]23C)C1(C)C (some centres not stated),> 100 µM,

Compound,TGI,GI50
C=C1C(=O)O[C@H](c2ccoc2)C[C@@H]1[C@@]1(C)CCCC2(C)C(=O)OCC21 (some centres not stated),> 100 µM,
O=C1Nc2ccc(Br)cc2/C1=N/S(=O)(=O)O,> 100 µM,
N=c1oc2ccccc2cc1C(=O)Nc1cccc2ccccc12,> 100 µM,
O/N=C(\CC(O)(C(F)(F)F)C(F)(F)F)c1cccs1,> 10 µM,
Cc1ccc(N)cc1[As]=[As]c1cc(N)ccc1C (configuration not stated),5.81 µM,2.54 µM
C=C(Cl)/C(=C\Cl)CCC(Cl)C(C)C (configuration not stated) (tested in a mixture with another compound),30 µM,
C=C1N(S(=O)(=O)c2ccc(C)cc2)C(=O)OCC12CCCC2,> 100 µM,
CN(C)c1ccc(/C=C(\C#N)c2cc3ccccc3[nH]2)cc1,> 100 µM,2.88 µM
C/C(=C\COP(=O)(O)OP(=O)(O)O)CCCCCCOCc1ccccc1,> 100 µM,
COc1cccc(NC(=O)CSc2nnc(Cc3ccccc3)o2)c1,> 100 µM,
O=C=C=P(c1ccccc1)(c1ccccc1)c1ccccc1,> 100 µM,
Cn1c(=O)c2ccccc2[n+]2c(-c3cccc([N+](=O)[O-])c3)csc12,> 100 µM,
CCCCN=NNc1cn(C2OC(CO)C(O)C2O)c(=O)[nH]c1=O (configuration not stated),> 100 µM,
CN(C)NC(=O)/C(=C/c1ccc(Cl)cc1)NC(=O)c1ccccc1,> 100 µM,
CCN(CC)CCNC(=O)c1cccc2c1-c1ccccc1C2=O,> 100 µM,> 100 µM
C=CCCCCCCCCCP(=O)(c1ccccc1)c1ccc2c(c1)OCCOCCOCCOCCO2 (configuration not stated),28.7 µM,
O=C1C=C(NCCO)c2nccc3c2c1nc1ccccc13,98.8 µM,27 µM
Cc1c(C(=O)c2ccccc2)[n+](=O)c2cc(Cl)c(Cl)cc2n1[O-],18.4 µM,
CC(=O)NS(=O)(=O)c1ccc(NCc2cccc3c(=O)c4ccc(Cl)cc4oc23)cc1,> 100 µM,
Oc1ccc2c(=S)cc(-c3ccc(Br)cc3)oc2c1O,6.37 µM,1.89 µM
COc1cc(OCc2ccccc2)c2c(CCC(=O)O)cc(=O)oc2c1 (tested in a mixture with another compound),> 100 µM,
O=C(NC1CC1)c1c(O)[nH]c(=S)[nH]c1=O,> 100 µM,
Cc1cc(O)c2c(c1)C(=O)c1c(c(O)cc(O)c1-c1c(O)cc(O)c3c1C(=O)c1cc(C)cc(O)c1C3=O)C2=O,59.9 µM,
CCCCC(=O)N(c1ccc(Nc2c3ccccc3nc3cc([N+](=O)[O-])ccc23)cc1)S(C)(=O)=O,> 81.5 µM,18.4 µM
